Laboratory results reported in the supplement of paper PMC10369915.
The list shows a part of the results. Rule as the data show it: active = 3.2 or more and inactive = the rest. Most of these values are background signal.

B1: ATM_Y2019_D2016G (peptide)
chain: EPGSLYGCGGG
B2: ATP6V1B1_Y462_R465H (peptide)
chain: INQGPYENHSV
B3: ATP7A_Y1459 (peptide)
chain: DRIVNYSRASI
B4: ATP8B1_Y658 (peptide)
chain: TLCLCYKEIEE
B5: ATP8B1_Y658_I661T (peptide)
chain: TLCLCYKETEE
B6: ATRX_Y203 (peptide)
chain: KNCFKYYMSDD
B7: ATRX_Y203_C200S (peptide)
chain: KNSFKYYMSDD
B8: AVPR2_Y117_C112Y_YF (peptide)
chain: FRAVKYLQMVG
B9: AVPR2_Y124_M123K (peptide)
chain: QMVGKYASSYM
B10: AVPR2_Y124_S127F (peptide)
chain: QMVGMYASFYM
B11: AXL_Y115 (peptide)
chain: SDTGQYQCLVF
B12: B4GALT6_Y382_I379V (peptide)
chain: APVEDYGGGGG
B13: BAD_Y110 (peptide)
chain: WAAQRYGRELR
B14: BAD_Y110_A107S (peptide)
chain: WASQRYGRELR
B15: BBS2_Y644 (peptide)
chain: TMKSRYMELYD
B16: BBS2_Y648_YF (peptide)
chain: RFMELYDLNRD
B17: BBS4_Y48_YF (peptide)
chain: FIRKDYEACKA
B18: BCCIP_Y257_E254Q (peptide)
chain: EEQFFYEKAIL
B19: BCL2_Y9 (peptide)
chain: AGRTGYDNREI
B20: BCL6_Y157_G159S (peptide)
chain: QDIMAYRSREV
B21: BCO2_Y294 (peptide)
chain: GMTRNYIIFIE
B22: BCO2_Y294_G289E (peptide)
chain: EMTRNYIIFIE
B23: BCR_Y1089 (peptide)
chain: EEVGIYRVSGV
B24: BCR_Y554_K558T (peptide)
chain: KVPELYEIHTE
B25: BCR_Y751_D752E_YF (peptide)
chain: GKTQQYECKWF
B26: BCR_Y756_D752E_YF (peptide)
chain: FECKWYIPLTD
B27: BCR_Y756_YF (peptide)
chain: FDCKWYIPLTD
B28: BCS1L_Y181 (peptide)
chain: WRPFGYPRRRR
B29: BEST1_Y148_P152A (peptide)
chain: VSTAVYKRFAS
B30: BEST1_Y227_L224M (peptide)
chain: GHMYAYDWISI
B31: BEST1_Y227_L224M_YF (peptide)
chain: GHMFAYDWISI
B32: BEST1_Y227_L224P_YF (peptide)
chain: GHPFAYDWISI
B33: BEST1_Y227_S231R_YF (peptide)
chain: GHLFAYDWIRI
B34: BEX1_Y43 (peptide)
chain: LDAGEYCVPRG
B35: BIN1_Y150_D151N (peptide)
chain: RKLVDYNSARH
B36: BIN1_Y150_R145C (peptide)
chain: CKLVDYDSARH
B37: BLM_Y296_T298M (peptide)
chain: FDDDDYDMDFV

Molecular target: SHP2 C-SH2 domain E139D
Experiment: enrichment score (SH2-bound / input frequency) (ratio); bacterial display of known human phosphotyrosine sites (pTyr-Var adds point mutants) read by sequencing; higher = stronger binding; tyrosines were phosphorylated by kinases first
Conditions: peptide library: pTyr-Var
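Also: displayed peptides selected on beads carrying the immobilized SH2 domain, with library peptides lacking any tyrosine serving as negative controls.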

Row | Binder | enrichment score
1 | B1 | inactive: 0.489
2 | B2 | inactive: 0.941
3 | B3 | inactive: 1.14
4 | B4 | inactive: 1.52
5 | B5 | inactive: 1.41
6 | B6 | inactive: 1.09
7 | B7 | inactive: 1
8 | B8 | inactive: 1.01
9 | B9 | inactive: 0.898
10 | B10 | inactive: 0.978
11 | B11 | inactive: 0.625
12 | B12 | inactive: 0.675
13 | B13 | inactive: 0.342
14 | B14 | inactive: 0.462
15 | B15 | inactive: 0.954
16 | B16 | inactive: 1.19
17 | B17 | inactive: 0.883
18 | B18 | inactive: 1.3
19 | B19 | inactive: 0.639

Row | Binder | enrichment score
20 | B20 | inactive: 0.922
21 | B21 | inactive: 2.57
22 | B22 | inactive: 1.08
23 | B23 | inactive: 0.668
24 | B24 | inactive: 0.766
25 | B25 | inactive: 0.976
26 | B26 | inactive: 1.13
27 | B27 | inactive: 0.996
28 | B28 | inactive: 0.24
29 | B29 | inactive: 0.502
30 | B30 | inactive: 2.8
31 | B31 | inactive: 2.13
32 | B32 | inactive: 1.38
33 | B33 | inactive: 2.65
34 | B34 | inactive: 0.613
35 | B35 | inactive: 0.638
36 | B36 | inactive: 0.584
37 | B37 | inactive: 0.538

Molecular target: SHP2 C-SH2 domain wild-type
Experiment: as above
Conditions: peptide library: pTyr-Var

Row | Binder | enrichment score
38 | B1 | inactive: 0.584
39 | B2 | inactive: 0.887
40 | B3 | inactive: 0.962
41 | B4 | inactive: 1.77
42 | B5 | inactive: 1.68
43 | B6 | inactive: 1.29
44 | B7 | inactive: 0.883
45 | B8 | inactive: 1.34
46 | B9 | inactive: 0.899
47 | B10 | inactive: 1.62
48 | B11 | inactive: 0.86
49 | B12 | inactive: 0.577
50 | B13 | inactive: 0.389
51 | B14 | inactive: 0.408
52 | B15 | inactive: 0.748
53 | B16 | inactive: 1.12
54 | B17 | inactive: 0.914
55 | B18 | inactive: 1.36
56 | B19 | inactive: 0.71

Row | Binder | enrichment score
57 | B20 | inactive: 0.383
58 | B21 | inactive: 2.16
59 | B22 | inactive: 1.06
60 | B23 | inactive: 0.721
61 | B24 | inactive: 0.75
62 | B25 | inactive: 1.02
63 | B26 | inactive: 1.17
64 | B27 | inactive: 1.46
65 | B28 | inactive: 0.345
66 | B29 | inactive: 0.439
67 | B30 | inactive: 2.55
68 | B31 | inactive: 2.18
69 | B32 | inactive: 1.04
70 | B33 | inactive: 2.33
71 | B34 | inactive: 0.692
72 | B35 | inactive: 0.54
73 | B36 | inactive: 0.72
74 | B37 | inactive: 0.612

Molecular target: SHP2 N-SH2 domain L43F
Experiment: as above
Conditions: peptide library: pTyr-Var

Row | Binder | enrichment score
75 | B1 | inactive: 0.54
76 | B2 | inactive: 1.09
77 | B3 | inactive: 0.833
78 | B4 | inactive: 1.75
79 | B5 | inactive: 1.85
80 | B6 | inactive: 1.08
81 | B7 | inactive: 0.694
82 | B8 | inactive: 1.23
83 | B9 | inactive: 0.796
84 | B10 | inactive: 1.07
85 | B11 | inactive: 0.617
86 | B12 | inactive: 0.632
87 | B13 | inactive: 0.246
88 | B14 | inactive: 0.28
89 | B15 | inactive: 1.27
90 | B16 | inactive: 0.743
91 | B17 | inactive: 0.873
92 | B18 | inactive: 1.19
93 | B19 | inactive: 0.68

Row | Binder | enrichment score
94 | B20 | inactive: 0.68
95 | B21 | inactive: 2.55
96 | B22 | inactive: 1.11
97 | B23 | inactive: 0.815
98 | B24 | inactive: 0.788
99 | B25 | inactive: 0.932
100 | B26 | inactive: 1.28
101 | B27 | inactive: 0.901
102 | B28 | inactive: 0.366
103 | B29 | inactive: 0.283
104 | B30 | inactive: 2.52
105 | B31 | inactive: 1.89
106 | B32 | inactive: 1.15
107 | B33 | inactive: 2.57
108 | B34 | inactive: 0.66
109 | B35 | inactive: 0.363
110 | B36 | inactive: 0.625
111 | B37 | inactive: 0.601

Molecular target: SHP2 N-SH2 domain T42A
Experiment: as above
Conditions: peptide library: pTyr-Var

Row | Binder | enrichment score
112 | B1 | inactive: 0.465
113 | B2 | inactive: 0.763
114 | B3 | inactive: 0.962
115 | B4 | inactive: 1.44
116 | B5 | inactive: 1.07
117 | B6 | inactive: 1.16
118 | B7 | inactive: 0.624
119 | B8 | active: 3.26
120 | B9 | inactive: 0.619
121 | B10 | inactive: 1.2
122 | B11 | inactive: 0.616
123 | B12 | inactive: 0.341
124 | B13 | inactive: 0.226
125 | B14 | inactive: 0.295
126 | B15 | inactive: 2.47
127 | B16 | inactive: 0.934
128 | B17 | inactive: 0.691
129 | B18 | inactive: 0.941
130 | B19 | inactive: 0.544

Row | Binder | enrichment score
131 | B20 | inactive: 0.427
132 | B21 | inactive: 1.98
133 | B22 | inactive: 1.15
134 | B23 | inactive: 0.686
135 | B24 | inactive: 0.729
136 | B25 | inactive: 0.858
137 | B26 | inactive: 1.18
138 | B27 | inactive: 1.06
139 | B28 | inactive: 0.252
140 | B29 | inactive: 0.305
141 | B30 | inactive: 2.76
142 | B31 | inactive: 1.82
143 | B32 | inactive: 1.42
144 | B33 | inactive: 2.19
145 | B34 | inactive: 0.669
146 | B35 | inactive: 0.382
147 | B36 | inactive: 0.698
148 | B37 | inactive: 0.631

Molecular target: SHP2 N-SH2 domain T52S
Experiment: as above
Conditions: peptide library: pTyr-Var

Row | Binder | enrichment score
149 | B1 | inactive: 0.523
150 | B2 | inactive: 0.852
151 | B3 | inactive: 0.854
152 | B4 | inactive: 1.82
153 | B5 | inactive: 1.54
154 | B6 | inactive: 0.926
155 | B7 | inactive: 0.668
156 | B8 | inactive: 1.09
157 | B9 | inactive: 0.906
158 | B10 | inactive: 0.961
159 | B11 | inactive: 0.516
160 | B12 | inactive: 0.559
161 | B13 | inactive: 0.293
162 | B14 | inactive: 0.326
163 | B15 | inactive: 1.1
164 | B16 | inactive: 1.51
165 | B17 | inactive: 0.75
166 | B18 | inactive: 1.3
167 | B19 | inactive: 0.56

Row | Binder | enrichment score
168 | B20 | inactive: 0.542
169 | B21 | inactive: 2.56
170 | B22 | inactive: 1.05
171 | B23 | inactive: 0.684
172 | B24 | inactive: 0.685
173 | B25 | inactive: 0.893
174 | B26 | inactive: 0.953
175 | B27 | inactive: 0.967
176 | B28 | inactive: 0.3
177 | B29 | inactive: 0.387
178 | B30 | inactive: 2.9
179 | B31 | inactive: 2.35
180 | B32 | inactive: 1.17
181 | B33 | inactive: 2.47
182 | B34 | inactive: 0.633
183 | B35 | inactive: 0.508
184 | B36 | inactive: 0.614
185 | B37 | inactive: 0.575

Molecular target: SHP2 N-SH2 domain wild-type
Experiment: as above
Conditions: peptide library: pTyr-Var

Row | Binder | enrichment score
186 | B1 | inactive: 0.476
187 | B2 | inactive: 0.957
188 | B3 | inactive: 0.937
189 | B4 | inactive: 1.83
190 | B5 | inactive: 1.85
191 | B6 | inactive: 1.47
192 | B7 | inactive: 0.627
193 | B8 | inactive: 0.794
194 | B9 | inactive: 0.856
195 | B10 | inactive: 1.4
196 | B11 | inactive: 0.989
197 | B12 | inactive: 0.593
198 | B13 | inactive: 0.31
199 | B14 | inactive: 0.327
200 | B15 | inactive: 0.844
201 | B16 | inactive: 0.759
202 | B17 | inactive: 0.766
203 | B18 | inactive: 1.21
204 | B19 | inactive: 0.784

Row | Binder | enrichment score
205 | B20 | inactive: 0.613
206 | B21 | inactive: 2.11
207 | B22 | inactive: 1.17
208 | B23 | inactive: 0.939
209 | B24 | inactive: 1.04
210 | B25 | inactive: 1.15
211 | B26 | inactive: 1.96
212 | B27 | inactive: 1.49
213 | B28 | inactive: 0.282
214 | B29 | inactive: 0.362
215 | B30 | inactive: 2.56
216 | B31 | inactive: 2.28
217 | B32 | inactive: 1.08
218 | B33 | inactive: 2.64
219 | B34 | inactive: 0.928
220 | B35 | inactive: 0.869
221 | B36 | inactive: 0.79
222 | B37 | inactive: 0.719
